Measurements as given in PubChem BioAssay (NCATS).
“And” between values parts separate entries of the source, which are not always exact repeats. Identical values can stand only once. Inconclusive means that the source gave no clear call. Such entries were picked first, then a sample of the others. For some of these results: A potency beside an inconclusive call is a rough fit, not a confirmed value. For some of these results: A note “side channel” means that the fit belongs to a control or component signal, not to the main read-out. The source made the active and inactive calls. Unless noted, the call rests on the fitted dose curve.

Key:
[1] = target: Peroxisome proliferator-activated receptor gamma (Homo sapiens) (UniProt P37231); assay: qHTS assay for small molecule agonists of peroxisome proliferator-activated receptor gamma signaling (AID 588536; active means well fitted curve in the direction sought with a large enough effect in the signal ratio, with a control signal flat, not every such curve was filed as active; inconclusive means small, poorly fitted or top-dose-only effect, or effect the other way, or a change in a side signal; inactive means no such curve, though single readings can be large or run the other way; the % refers to the signal ratio;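 further: 0% = DMSO basal wells and 100% = rosiglitazone at 2 µM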); conditions: HEK293 PPARg-UAS-bla, beta-lactamase ratio, 16 h; activation: at 76.7 µM (top of the series), percent of rosiglitazone response, DMSO as zero
In short: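 Compound treatment: 16 h, 37 C, HEK293 GeneBLAzer cells. Detection: CCF4, 2 h RT. Values: Hill-fit EC50, efficacy as % of 2 uM rosiglitazone.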

[2] = target: Peroxisome proliferator-activated receptor gamma (Homo sapiens) (UniProt P37231); assay: qHTS assay for small molecule antagonists of peroxisome proliferator-activated receptor gamma signaling (AID 588537; active means well fitted inhibition curve with a large enough effect in the signal ratio, with a control signal flat, not every such curve was filed as active; inconclusive means small, poorly fitted or top-dose-only effect, or effect the other way, or a change in a side signal; the % refers to the signal ratio;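 further: reporter cells co-stimulated with 50 nM rosiglitazone agonist during compound treatment; % of control where 0% means no effect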); conditions: HEK293 PPARg-UAS-bla, beta-lactamase ratio, antagonist mode; activity, negative = inhibition: at 76.8 µM (top of the series)
In short: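 Fluorescence at 460 and 530 nm (405 nm excitation) reported beta-lactamase cleavage of CCF4 after 2 h room-temperature loading. HEK293 reporter cells in 1% charcoal/dextran-treated FBS had received compound and rosiglitazone for 16 h.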

[3] = target: Retinoic acid receptor RXR-alpha (Homo sapiens) (UniProt P19793); assay: qHTS assay for small molecule agonists of retinoid X receptor alpha signaling (AID 588544); conditions: HEK293T RXRa-UAS-bla, beta-lactamase reporter, 18 h; activation: at 76.7 µM (top of the series) unless noted;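 further: 0% = DMSO basal wells and 100% = reference agonist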
UniProt P19793, sequence (P19793 whole entry, looked up): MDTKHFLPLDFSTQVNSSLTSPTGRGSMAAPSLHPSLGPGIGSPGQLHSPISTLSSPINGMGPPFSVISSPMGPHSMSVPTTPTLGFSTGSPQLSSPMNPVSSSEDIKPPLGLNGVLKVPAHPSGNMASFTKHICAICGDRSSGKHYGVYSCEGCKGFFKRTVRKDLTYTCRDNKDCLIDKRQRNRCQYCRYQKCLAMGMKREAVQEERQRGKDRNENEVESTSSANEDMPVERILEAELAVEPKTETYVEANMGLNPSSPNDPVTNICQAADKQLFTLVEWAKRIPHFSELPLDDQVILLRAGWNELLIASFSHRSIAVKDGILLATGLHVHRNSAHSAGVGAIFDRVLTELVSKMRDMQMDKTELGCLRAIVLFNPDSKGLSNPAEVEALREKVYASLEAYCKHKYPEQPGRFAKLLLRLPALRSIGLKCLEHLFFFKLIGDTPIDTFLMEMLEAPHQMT

[4] = target: Retinoic acid receptor RXR-alpha (Homo sapiens) (UniProt P19793); assay: qHTS assay for small molecule antagonists of retinoid X receptor alpha signaling (AID 588546; active means well fitted inhibition curve with a large enough effect in the signal ratio, with a control signal flat, not every such curve was filed as active; inconclusive means small, poorly fitted or top-dose-only effect, or effect the other way, or a change in a side signal; inactive means no such curve, though single readings can be large or run the other way; the % refers to the signal ratio;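 further: cells stimulated with 9-cis-retinoic acid as agonist; on the % scale 0 is the no-effect control and ±100 the full control effect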); conditions: HEK293T RXRa-UAS-bla, beta-lactamase ratio, antagonist mode
In short: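 Beta-lactamase reporter inhibition, read as CCF4 fluorescence ratio (ex 405, em 460/530 nm) after 2 h at RT. HEK293T UAS-bla cells, 2500/well, were stimulated with 9-cis-RA at 500 or 100 nM final alongside test compound for 18 h at 37 C.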

[5] = target: Tumor necrosis factor (Homo sapiens) (UniProt P01375); assay: qHTS assay to identify small molecules that stimulate Tumor Necrosis Factor-alpha (TNF-alpha) secretion (AID 651757; active means well fitted curve in the direction sought with a large enough effect in the signal ratio; inconclusive means small, poorly fitted or top-dose-only effect, or a change in a side signal; inactive means no such curve, though single readings can be large or run the other way; the % refers to the signal ratio; further: 0% is about no effect); conditions: Human cells, HTRF 665/615 ratio; activation (TNF-alpha secretion): at 92.2 µM (top of the series)
UniProt P01375, sequence (P01375 whole entry, looked up): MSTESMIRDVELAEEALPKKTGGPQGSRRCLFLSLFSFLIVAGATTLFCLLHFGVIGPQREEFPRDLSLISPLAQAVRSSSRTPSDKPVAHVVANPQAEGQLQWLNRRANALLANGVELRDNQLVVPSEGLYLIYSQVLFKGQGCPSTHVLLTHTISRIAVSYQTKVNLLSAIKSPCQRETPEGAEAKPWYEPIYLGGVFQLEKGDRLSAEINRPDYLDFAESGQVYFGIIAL
In short: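 Secreted TNF-alpha quantified by TR-FRET sandwich of two labeled anti-TNF-alpha antibodies, incubated 3 hr at room temperature. Preceded by 17 hr, 37 C compound treatment of THP-1 cells at 3000 cells/well.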

[6] = qHTS assay to identify small molecules that stimulate interleukin-8 (IL-8) secretion (AID 651758; active means well fitted activation curve with a large enough effect in the signal ratio; inconclusive means small, poorly fitted or top-dose-only effect, or effect the other way, or a change in a side signal; the % refers to the signal ratio; further: potency means the concentration at half of the fitted maximal effect; on activation: 0% is about no effect); conditions: HTRF ratio (665/615); activation: at 92.2 µM (top of the series)
In short: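 Compounds are added to THP-1 cells (2000 per well) and left 16 hrs at 37 C. A labeled anti-IL-8 antibody pair is then added, and IL-8 secretion is measured by time-resolved FRET after 1-3 hrs at room temperature.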

[7] = qHTS assay for small molecule agonists of the antioxidant response element (ARE) signaling pathway measured by Nrf2-dependant transcriptional activity (AID 720636; active means well fitted curve in the direction sought with a large enough effect in the repeat runs; inconclusive means weak or mixed curves; inactive means no such curve, though single readings can be large; an effect the other way counts as inactive or inconclusive; further: potency means the concentration at half of the fitted maximal effect)
In short: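 We exposed ARE-luc HepG2 cells, seeded in assay medium with 1% dialyzed FBS and allowed 6 hr to adhere, to test compounds overnight (16 hr, 37 C) before measuring luciferase with ONE-Glo.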

[8] = qHTS assay for small molecule antagonists of the retinoid-related orphan receptor gamma (ROR-gamma) signaling pathway - cell viability counter screen (AID 720652; active means well fitted curve in the direction sought with a large enough effect in the repeat runs; inconclusive means weak or mixed curves; inactive means no such curve, though single readings can be large; an effect the other way counts as inactive or inconclusive;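 further: compound exposure lasted 16 hr before ATP read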; further: potency means the concentration at half of the fitted maximal effect;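 on activity change, negative = cytotoxicity: CHO reporter cells with doxycycline-induced ROR-gamma expression; on the % scale 0 is the no-effect control and ±100 the full control effect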)
In short: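 Cytotoxicity counter screen: intracellular ATP (CellTiter-Glo luminescence) measured in the doxycycline-induced CHO RORE-luciferase reporter line after 16 hr compound exposure at 37 C, 5% CO2.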

[9] = Cell Viability - BJ (AID 421); conditions: BJ fibroblast viability, qHTS;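 further: potency means the concentration at half of the fitted maximal effect; cells exposed to compound for 40 hours at 37 °C before readout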
In short: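 Luminescent ATP signal (CellTiter-Glo, 20 min at room temperature) served as the read-out of viable BJ cells after 40 hours of compound treatment. Responses were scaled between DMSO and 100 uM tamoxifen, and AC50 values were obtained by Hill modeling.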

[10] = Cellular Toxicity (caspase-3) Mesangial (AID 660; active means well fitted curve in the direction sought with a large enough effect; inconclusive means small, poorly fitted or top-dose-only effect, or another doubt; inactive means no such curve, though single readings can be large; an effect the other way counts as inactive or inconclusive;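 further: combined caspase 3 and 7 activity read by Caspase-Glo luminescence; cells exposed to compound for 16 h before the caspase read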); conditions: mesangial cells, normalized: DMSO 0%, 100 µM tamoxifen 100%; at 91.7 µM (top of the series)
In short: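 Caspase 3/7 activation measured by Caspase-Glo 3/7 luminescence (20 min, room temperature) following 16 h exposure of mesangial cells (1000/well); AC50 from Hill-equation fit, normalized to DMSO and 100 uM tamoxifen.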

[11] = MultiTox-Fluor Cytotoxicity Assay - LYMP1-001 - Live Cells (AID 947; active means well fitted curve in the direction sought with a large enough effect; inconclusive means small, poorly fitted or top-dose-only effect, or another doubt; inactive means no such curve, though single readings can be large; an effect the other way counts as inactive or inconclusive; further: potency means the concentration at half of the fitted maximal effect)
[12] = target: Estrogen receptor (Homo sapiens) (UniProt P03372); assay: qHTS assay for small molecule agonists of estrogen receptor alpha signaling (AID 588514); conditions: ER-alpha-UAS-bla HEK293, beta-lactamase ratio, 18 h; activation: at 76.8 µM (top of the series), percent of full estradiol response, vehicle zero;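 further: 0% = vehicle only and 100% = reference agonist; nearly all actives have a fitted effect of over 70% in size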
UniProt P03372, sequence (P03372 whole entry, looked up): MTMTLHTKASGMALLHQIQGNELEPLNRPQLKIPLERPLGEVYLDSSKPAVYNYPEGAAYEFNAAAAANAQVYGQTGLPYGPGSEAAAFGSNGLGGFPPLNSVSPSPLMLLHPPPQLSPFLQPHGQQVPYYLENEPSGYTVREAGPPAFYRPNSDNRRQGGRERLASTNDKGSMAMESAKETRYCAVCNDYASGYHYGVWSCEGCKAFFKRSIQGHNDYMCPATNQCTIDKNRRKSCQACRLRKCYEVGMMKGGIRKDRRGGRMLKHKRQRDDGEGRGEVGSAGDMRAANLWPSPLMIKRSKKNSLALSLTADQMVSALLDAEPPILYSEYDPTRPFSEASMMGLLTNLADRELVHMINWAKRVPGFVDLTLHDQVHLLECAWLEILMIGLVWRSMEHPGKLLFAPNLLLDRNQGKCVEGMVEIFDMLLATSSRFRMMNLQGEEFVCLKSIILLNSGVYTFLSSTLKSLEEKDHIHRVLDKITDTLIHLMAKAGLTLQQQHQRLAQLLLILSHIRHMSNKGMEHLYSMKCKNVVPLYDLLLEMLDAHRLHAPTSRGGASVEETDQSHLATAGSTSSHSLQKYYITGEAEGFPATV
In short: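 EC50 and efficacy came from Hill fits of beta-lactamase reporter signal (CCF4 dye, 2 h at room temperature) scaled between DMSO and 20 nM 17-beta-estradiol. Agonist mode: HEK293 ER-alpha-UAS-bla cells in charcoal/dextran-stripped serum medium, 18 h compound exposure at 37 C.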

[13] = target: Vitamin D3 receptor (Homo sapiens) (UniProt P11473); assay: qHTS assay for small molecule agonists of vitamin D receptor signaling (AID 588543); conditions: HEK293T VDR-UAS-bla, beta-lactamase ratio, 16 h; activation: at 76.8 µM (top of the series);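 further: 0% = DMSO basal and 100% = reference agonist control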
UniProt P11473, sequence (P11473 whole entry, looked up): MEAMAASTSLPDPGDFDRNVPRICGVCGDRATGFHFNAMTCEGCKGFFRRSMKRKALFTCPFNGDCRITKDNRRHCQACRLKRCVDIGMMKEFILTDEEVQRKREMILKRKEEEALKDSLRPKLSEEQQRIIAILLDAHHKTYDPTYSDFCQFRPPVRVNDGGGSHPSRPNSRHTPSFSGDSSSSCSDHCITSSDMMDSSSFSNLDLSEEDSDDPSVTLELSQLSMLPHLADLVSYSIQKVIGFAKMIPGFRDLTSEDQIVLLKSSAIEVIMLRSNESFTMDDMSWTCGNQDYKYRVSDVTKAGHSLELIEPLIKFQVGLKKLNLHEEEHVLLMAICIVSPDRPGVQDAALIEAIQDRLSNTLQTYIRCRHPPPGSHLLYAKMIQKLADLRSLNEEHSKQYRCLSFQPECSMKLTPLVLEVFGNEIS
In short: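 β-lactamase reporter, VDR-UAS-bla HEK293T, agonist mode. Cells plated 5 h at 37 °C, compound titration 16 h at 37 °C, CCF4 dye 2 h RT, ratio 460/530 nm. Hill fit → EC50, efficacy vs 50 nM 1α,25-(OH)2D3.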

[14] = Cell Viability - Jurkat (AID 426;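 active means dose-dependent loss of cell ATP signal giving a full or clear fitted curve, ranked by lower potency value; inconclusive means weak partial curve or response only at the top dose; inactive means no loss of viability signal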;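 further: potency means the concentration at half of the fitted maximal effect; cells exposed to compound for 40 hours at 37 °C before ATP read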); conditions: qHTS
In short: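 Cytotoxicity taken as drop in cellular ATP (CellTiter-Glo luminescence, 20 min room temperature) after 40 hr, 37C treatment of 5000 Jurkat Clone E6-1 cells per well; concentration-response fitted with Hill equation for AC50.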

[15] = Cell Viability - Renal Proximal Tubule (AID 545; active means well fitted curve in the direction sought with a large enough effect; inconclusive means small, poorly fitted or top-dose-only effect, or another doubt; inactive means no such curve, though single readings can be large; an effect the other way counts as inactive or inconclusive; further: nearly all actives have a fitted effect of over 40% in size); conditions: renal proximal tubule cells viability, primary cells of rat origin; activity change, negative = cytotoxicity: at 91.7 µM (top of the series)
In short: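 Rat kidney proximal tubule cells, freshly isolated; 1000 cells/well, 5 hr settle, compound 40 hr 37 °C. CellTiter-Glo 20 min RT, luminescence read. AC50 by standard Hill fit.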

[16] = Cellular Toxicity (caspase-3) Jurkat (AID 655; active means well fitted curve in the direction sought with a large enough effect; inconclusive means small, poorly fitted or top-dose-only effect, or another doubt; inactive means no such curve, though single readings can be large; an effect the other way counts as inactive or inconclusive;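 further: cells exposed to compound for 16 h at 37 °C before reading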); conditions: Jurkat caspase-3 activation, luminescence; caspase-3 activation: at 92.2 µM (top of the series), DMSO = 0%, tamoxifen = 100%
In short: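 Luminescent caspase-3/7 readout (aminoluciferin substrate cleavage) in human T-cell leukemia Jurkat cells after 16 hr compound exposure. Concentration-response normalized to DMSO and 100 uM tamoxifen; AC50 by standard Hill equation.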

[17] = target: Bile acid receptor (Homo sapiens) (UniProt Q96RI1); assay: qHTS assay for small molecule antagonists of farnesoid X receptor signaling (AID 588526); conditions: HEK293T FXR-UAS-bla, beta-lactamase ratio, antagonist mode; activity change, negative = inhibition: at 76.7 µM (top of the series); further: on the % scale 0 is the no-effect control and ±100 the full control effect
UniProt Q96RI1, sequence (Q96RI1 whole entry, looked up): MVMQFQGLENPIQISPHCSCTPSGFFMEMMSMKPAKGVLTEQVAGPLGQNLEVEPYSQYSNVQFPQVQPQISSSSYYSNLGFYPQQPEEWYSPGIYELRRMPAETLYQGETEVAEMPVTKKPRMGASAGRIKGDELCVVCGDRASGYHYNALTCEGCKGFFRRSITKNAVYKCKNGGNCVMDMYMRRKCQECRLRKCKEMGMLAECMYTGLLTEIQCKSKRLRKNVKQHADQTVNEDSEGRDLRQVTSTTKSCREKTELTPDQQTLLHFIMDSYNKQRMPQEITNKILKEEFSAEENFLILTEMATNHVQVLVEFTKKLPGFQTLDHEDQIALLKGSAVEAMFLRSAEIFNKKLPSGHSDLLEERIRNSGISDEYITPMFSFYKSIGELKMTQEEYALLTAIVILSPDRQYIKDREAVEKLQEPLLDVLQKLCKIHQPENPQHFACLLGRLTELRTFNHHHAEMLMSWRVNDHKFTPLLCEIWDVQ
In short: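 Antagonist mode: titrated compounds tested against chenodeoxycholic acid stimulation (normalized to 50 uM CDCA and DMSO) in GeneBLAzer HEK293T cells for 16 h. Beta-lactamase read by CCF4 fluorescence; IC50 from Hill fits.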

[18] = target: Bile acid receptor (Homo sapiens) (UniProt Q96RI1); assay: qHTS assay for small molecule agonists of farnesoid X receptor signaling (AID 588527); conditions: HEK293T FXR-UAS-bla, beta-lactamase ratio, 16 h; activation: hits give high values;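 further: 0% = vehicle basal and 100% = reference agonist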
In short: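 FXR-UAS-bla HEK293T, 10% dialyzed FBS; cpds up to 92 uM titration, 16 h 37 C; CCF4 dye 2 h RT; fluorescence. Normalized to chenodeoxycholic acid 100 uM (100%) and DMSO (0%); Hill fit gives EC50, efficacy.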

[19] = target: Thyroid hormone receptor beta (Homo sapiens) (UniProt P10828); assay: qHTS assay for small molecule antagonists of thyroid hormone receptor beta signaling (AID 588547; active means well fitted inhibition curve with a large enough effect in the signal ratio, with a control signal flat, not every such curve was filed as active; inconclusive means small, poorly fitted or top-dose-only effect, or effect the other way, or a change in a side signal; the % refers to the signal ratio; further: potency means the concentration at half of the fitted maximal effect); conditions: TR-UAS-bla HEK293, beta-lactamase ratio, antagonist mode, 18 h
UniProt P10828, sequence (P10828 whole entry, looked up): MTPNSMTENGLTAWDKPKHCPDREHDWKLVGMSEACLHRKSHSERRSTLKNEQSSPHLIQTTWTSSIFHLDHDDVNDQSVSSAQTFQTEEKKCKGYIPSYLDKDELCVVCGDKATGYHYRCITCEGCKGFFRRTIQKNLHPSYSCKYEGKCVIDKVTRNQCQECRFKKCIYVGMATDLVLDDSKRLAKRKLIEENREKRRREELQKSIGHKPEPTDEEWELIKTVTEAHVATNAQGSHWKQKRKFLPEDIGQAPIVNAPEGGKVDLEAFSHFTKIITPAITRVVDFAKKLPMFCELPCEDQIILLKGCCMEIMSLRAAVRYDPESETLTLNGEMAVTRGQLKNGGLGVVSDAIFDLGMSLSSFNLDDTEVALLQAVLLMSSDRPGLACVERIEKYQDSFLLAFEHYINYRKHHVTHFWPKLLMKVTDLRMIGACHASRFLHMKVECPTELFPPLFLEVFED
In short: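 TR-UAS-bla GripTite HEK293 cells in 2% charcoal/dextran FBS medium; compounds 0.59 nM to 92 uM with T3 at 0.4nM final, 18 h at 37 C. Beta-lactamase read by CCF4 fluorescence (460/530 nm); Hill fits gave IC50 and efficacy.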

[20] = target: Voltage-gated inwardly rectifying potassium channel KCNH2 (Homo sapiens) (UniProt Q12809); assay: qHTS Assay for Small Molecule Inhibitors of the Human hERG Channel Activity (AID 588834; active means well fitted curve in the direction sought with a large enough effect; inconclusive means small, poorly fitted or top-dose-only effect, or another doubt; inactive means no such curve, though single readings can be large; an effect the other way counts as inactive or inconclusive;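 further: top concentration of the series differs between compounds; on the % scale 0 is the no-effect control and ±100 the full control effect; lower thallium flux fluorescence means stronger hERG block; nearly all actives have a fitted effect of over 50% in size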)
UniProt Q12809, sequence (Q12809 whole entry, looked up): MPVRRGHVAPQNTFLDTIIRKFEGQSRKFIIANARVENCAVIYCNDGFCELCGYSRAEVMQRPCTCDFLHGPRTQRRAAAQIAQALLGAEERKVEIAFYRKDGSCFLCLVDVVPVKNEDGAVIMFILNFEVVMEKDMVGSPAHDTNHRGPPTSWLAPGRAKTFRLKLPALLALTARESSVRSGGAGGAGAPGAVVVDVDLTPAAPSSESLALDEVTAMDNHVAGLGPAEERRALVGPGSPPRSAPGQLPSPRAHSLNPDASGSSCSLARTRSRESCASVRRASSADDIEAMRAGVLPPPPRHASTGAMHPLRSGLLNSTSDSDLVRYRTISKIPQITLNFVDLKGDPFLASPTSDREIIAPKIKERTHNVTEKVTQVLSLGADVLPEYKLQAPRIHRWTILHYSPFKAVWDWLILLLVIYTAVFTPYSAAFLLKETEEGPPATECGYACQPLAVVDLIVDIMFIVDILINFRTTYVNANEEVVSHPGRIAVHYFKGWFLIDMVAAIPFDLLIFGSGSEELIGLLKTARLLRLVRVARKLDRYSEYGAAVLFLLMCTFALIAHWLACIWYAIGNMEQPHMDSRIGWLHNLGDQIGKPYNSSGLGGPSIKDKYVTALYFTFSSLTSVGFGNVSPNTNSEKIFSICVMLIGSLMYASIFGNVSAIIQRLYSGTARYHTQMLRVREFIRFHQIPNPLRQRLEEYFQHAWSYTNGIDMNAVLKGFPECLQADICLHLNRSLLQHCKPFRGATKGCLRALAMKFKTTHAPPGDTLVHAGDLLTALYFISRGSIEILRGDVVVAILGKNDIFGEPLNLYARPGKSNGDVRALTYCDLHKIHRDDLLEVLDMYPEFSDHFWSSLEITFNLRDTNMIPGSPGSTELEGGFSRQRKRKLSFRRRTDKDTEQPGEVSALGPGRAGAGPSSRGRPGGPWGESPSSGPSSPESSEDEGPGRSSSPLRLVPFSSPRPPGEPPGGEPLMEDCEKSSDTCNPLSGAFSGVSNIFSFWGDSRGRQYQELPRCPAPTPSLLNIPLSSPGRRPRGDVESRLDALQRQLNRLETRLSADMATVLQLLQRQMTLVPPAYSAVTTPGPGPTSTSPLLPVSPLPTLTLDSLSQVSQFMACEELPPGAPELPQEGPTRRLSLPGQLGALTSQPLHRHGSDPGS
In short: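 Thallium-flux (FluxOR) read-out on FDSS: fluorescence read 10 s before and 2 min after stimulation buffer. hERG-BacMam-transduced U2OS cells, compound exposure about 10 min. AC50 by standard Hill equation.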

[21] = qHTS assay for small molecule agonists of the antioxidant response element (ARE) signaling pathway (AID 651741; active means well fitted activation curve with a large enough effect in the signal ratio; inconclusive means small, poorly fitted or top-dose-only effect, or effect the other way, or a change in a side signal; the % refers to the signal ratio; further: % of control where 0% means no effect); conditions: HepG2 ARE-bla reporter, beta-lactamase FRET ratio, 16 h; activation: at 96 µM (top of the series) unless noted
In short: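 Stably integrated ARE-beta-lactamase reporter HepG2 cells; 16 h compound incubation, 37 C; LiveBLAzer FRET substrate 2 h at room temperature; fluorescence intensity.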
Tags describe the fitted curve by direction and shape or compound fluorescence and quenching.

O=[N+]([O-])c1cc(Cl)c(Cl)c(Cl)c1Cl
inactive: max response [4] -21.8% | Potency [5]
inconclusive: activation [1] 18.8% | activity, negative = inhibition [2] -18% | activation [3] -29.7% | Potency [6] 84.1 µM [rising, single point] | Potency [8] 42.2 µM [cytotoxic, partial curve, poor fit]
active: Potency [7] 37.6 µM

CCOC(C)(C)C
inactive: Potency [9] > 92 µM | caspase-3 activation [10] -0.979% | Potency [13] | Potency [6]
inconclusive: Potency [11] 0.0794 µM [cytotoxic, full curve, poor fit] | activation [12] 31%

O=C(O)c1ccc([N+](=O)[O-])cc1
inconclusive: Potency [14] 106 µM [single point] | Potency [19] 15.8 µM [side channel, falling, partial curve, poor fit] | activation [21] 5.77% | activation [6] -2.82%
inactive: activity change, negative = cytotoxicity [15] 4.76% | Potency [17] | activation [18] -2.8% and 1.45% | max response [4] 3.05% and 5.55% | Potency [20] | Potency [8]
active: caspase-3 activation [16] 85.2%
